Results are given in words; binding and its absence hold for the method and conditions named. For part of these data: In cells and extracts the contact can be indirect. Some results given as binding are weak or reduced against the parent protein; the word gives no strength. For part of these data: Tags and fused reporters may be left off the sequences shown.
Tests used:
[1] = molecular target: T1, Cyclin G, endogenous (Drosophila melanogaster (endogenous in embryos and heads)) (UniProt Q95TJ9); test: co-IP; endogenous proteins from about 500 embryos (0-24 h); IP with guinea pig anti-CycG or anti-Wdb antibodies, blots with rat antisera; preimmune serum as mock control
T1 sequence: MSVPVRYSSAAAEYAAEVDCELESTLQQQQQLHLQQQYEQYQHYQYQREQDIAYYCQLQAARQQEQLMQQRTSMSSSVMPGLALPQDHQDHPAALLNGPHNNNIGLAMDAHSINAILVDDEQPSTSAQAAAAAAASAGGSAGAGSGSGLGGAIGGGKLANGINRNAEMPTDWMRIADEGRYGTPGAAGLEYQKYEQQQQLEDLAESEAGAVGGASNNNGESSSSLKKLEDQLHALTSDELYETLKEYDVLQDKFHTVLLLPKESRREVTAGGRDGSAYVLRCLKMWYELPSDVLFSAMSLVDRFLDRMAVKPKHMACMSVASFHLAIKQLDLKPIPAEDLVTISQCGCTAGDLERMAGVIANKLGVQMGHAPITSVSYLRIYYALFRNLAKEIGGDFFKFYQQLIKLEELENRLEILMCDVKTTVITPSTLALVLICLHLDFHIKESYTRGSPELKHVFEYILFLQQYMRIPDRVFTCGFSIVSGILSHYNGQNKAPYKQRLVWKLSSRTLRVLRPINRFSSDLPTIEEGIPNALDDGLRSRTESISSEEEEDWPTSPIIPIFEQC

By UniProt entry, the sequences of proteins in these tests, tags left out.
UniProt Q9VB23: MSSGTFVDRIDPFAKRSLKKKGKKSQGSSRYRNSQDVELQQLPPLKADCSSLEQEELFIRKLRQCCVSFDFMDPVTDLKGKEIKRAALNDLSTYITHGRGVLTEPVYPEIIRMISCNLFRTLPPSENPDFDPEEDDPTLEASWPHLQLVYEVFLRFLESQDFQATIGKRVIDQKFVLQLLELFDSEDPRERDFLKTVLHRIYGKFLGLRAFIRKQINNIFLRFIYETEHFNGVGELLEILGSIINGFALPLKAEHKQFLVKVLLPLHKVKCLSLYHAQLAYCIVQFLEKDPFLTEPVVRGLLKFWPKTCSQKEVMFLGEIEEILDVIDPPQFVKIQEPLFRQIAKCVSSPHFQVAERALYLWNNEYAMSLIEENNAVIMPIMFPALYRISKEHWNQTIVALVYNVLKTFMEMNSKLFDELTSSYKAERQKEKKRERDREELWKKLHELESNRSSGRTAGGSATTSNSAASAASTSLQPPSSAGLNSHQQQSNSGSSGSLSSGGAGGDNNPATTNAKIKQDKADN

[2] = molecular target: T2, Akt1 kinase, endogenous (Drosophila melanogaster (endogenous in adult heads)) (UniProt Q8INB9); test: condition: only head extracts of wild type animals (CycG present); co-IP; endogenous proteins from 150 heads of wild type animals; IP with rabbit anti-Akt1, detection with rat anti-Wdb; unrelated serum as mock control
T2 sequence: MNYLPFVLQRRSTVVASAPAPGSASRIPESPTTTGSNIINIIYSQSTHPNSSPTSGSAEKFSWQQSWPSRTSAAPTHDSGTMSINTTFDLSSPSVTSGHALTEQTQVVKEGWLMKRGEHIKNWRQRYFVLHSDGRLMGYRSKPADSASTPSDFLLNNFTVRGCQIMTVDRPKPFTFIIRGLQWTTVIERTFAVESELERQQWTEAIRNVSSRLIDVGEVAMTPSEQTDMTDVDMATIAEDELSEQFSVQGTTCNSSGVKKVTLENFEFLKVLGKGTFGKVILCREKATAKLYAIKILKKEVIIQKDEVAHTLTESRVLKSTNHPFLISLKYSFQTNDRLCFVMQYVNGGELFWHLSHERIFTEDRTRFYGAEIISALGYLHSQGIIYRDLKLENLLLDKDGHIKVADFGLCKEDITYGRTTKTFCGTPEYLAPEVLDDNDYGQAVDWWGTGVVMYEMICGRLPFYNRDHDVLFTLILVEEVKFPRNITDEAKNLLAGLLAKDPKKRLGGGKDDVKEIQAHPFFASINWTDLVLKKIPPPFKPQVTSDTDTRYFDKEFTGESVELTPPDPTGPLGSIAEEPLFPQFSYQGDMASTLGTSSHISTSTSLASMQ

[3] = molecular target: T2, Akt1 kinase, endogenous (Drosophila melanogaster (endogenous in adult heads)); test: co-IP; endogenous proteins from 150 heads of cycG HR7 homozygous mutant animals; IP with rabbit anti-Akt1, detection with rat anti-Wdb; unrelated serum as mock control
[4] = molecular target: Widerborst, full length, yeast two-hybrid fusion (Drosophila melanogaster) (UniProt Q9VB23); test: two-hybrid; Brent two-hybrid system in yeast EGY40; both orientations (CycG in pEG or pJG, full length Wdb in pEG or VP16); blue staining of colonies; empty vectors as negative controls
[5] = molecular target: Widerborst, endogenous (Drosophila melanogaster (endogenous in embryos and heads)) (UniProt Q9VB23); test: co-IP; endogenous proteins from about 500 embryos (0-24 h); IP with guinea pig anti-CycG or anti-Wdb antibodies, blots with rat antisera; preimmune serum as mock control

Question: Which results are given for “Widerborst, endogenous (from UniProt Q9VB23 1-524)”?
Answer: binding [1]: binds; binding [2]: no binding; binding [3]: binds

B1: Cyclin G, full length protein (AS 1-566), yeast two-hybrid fusion (protein, UniProt Q95TJ9 1-566)
chain: MSVPVRYSSAAAEYAAEVDCELESTLQQQQQLHLQQQYEQYQHYQYQREQDIAYYCQLQAARQQEQLMQQRTSMSSSVMPGLALPQDHQDHPAALLNGPHNNNIGLAMDAHSINAILVDDEQPSTSAQAAAAAAASAGGSAGAGSGSGLGGAIGGGKLANGINRNAEMPTDWMRIADEGRYGTPGAAGLEYQKYEQQQQLEDLAESEAGAVGGASNNNGESSSSLKKLEDQLHALTSDELYETLKEYDVLQDKFHTVLLLPKESRREVTAGGRDGSAYVLRCLKMWYELPSDVLFSAMSLVDRFLDRMAVKPKHMACMSVASFHLAIKQLDLKPIPAEDLVTISQCGCTAGDLERMAGVIANKLGVQMGHAPITSVSYLRIYYALFRNLAKEIGGDFFKFYQQLIKLEELENRLEILMCDVKTTVITPSTLALVLICLHLDFHIKESYTRGSPELKHVFEYILFLQQYMRIPDRVFTCGFSIVSGILSHYNGQNKAPYKQRLVWKLSSRTLRVLRPINRFSSDLPTIEEGIPNALDDGLRSRTESISSEEEEDWPTSPIIPIFEQC
Question: For B1, which binding [4] is on record?
Answer: binds

B2: Cyclin G C-terminal region including the conserved Cyclin domains (AS 215-566), yeast two-hybrid fusion (domain or fragment, UniProt Q95TJ9 215-566)
chain: SNNNGESSSSLKKLEDQLHALTSDELYETLKEYDVLQDKFHTVLLLPKESRREVTAGGRDGSAYVLRCLKMWYELPSDVLFSAMSLVDRFLDRMAVKPKHMACMSVASFHLAIKQLDLKPIPAEDLVTISQCGCTAGDLERMAGVIANKLGVQMGHAPITSVSYLRIYYALFRNLAKEIGGDFFKFYQQLIKLEELENRLEILMCDVKTTVITPSTLALVLICLHLDFHIKESYTRGSPELKHVFEYILFLQQYMRIPDRVFTCGFSIVSGILSHYNGQNKAPYKQRLVWKLSSRTLRVLRPINRFSSDLPTIEEGIPNALDDGLRSRTESISSEEEEDWPTSPIIPIFEQC
Question: How did the binding [4] turn out when B2 was run?
Answer: binds

B3: Cyclin G, endogenous (protein, UniProt Q95TJ9 1-566)
chain: MSVPVRYSSAAAEYAAEVDCELESTLQQQQQLHLQQQYEQYQHYQYQREQDIAYYCQLQAARQQEQLMQQRTSMSSSVMPGLALPQDHQDHPAALLNGPHNNNIGLAMDAHSINAILVDDEQPSTSAQAAAAAAASAGGSAGAGSGSGLGGAIGGGKLANGINRNAEMPTDWMRIADEGRYGTPGAAGLEYQKYEQQQQLEDLAESEAGAVGGASNNNGESSSSLKKLEDQLHALTSDELYETLKEYDVLQDKFHTVLLLPKESRREVTAGGRDGSAYVLRCLKMWYELPSDVLFSAMSLVDRFLDRMAVKPKHMACMSVASFHLAIKQLDLKPIPAEDLVTISQCGCTAGDLERMAGVIANKLGVQMGHAPITSVSYLRIYYALFRNLAKEIGGDFFKFYQQLIKLEELENRLEILMCDVKTTVITPSTLALVLICLHLDFHIKESYTRGSPELKHVFEYILFLQQYMRIPDRVFTCGFSIVSGILSHYNGQNKAPYKQRLVWKLSSRTLRVLRPINRFSSDLPTIEEGIPNALDDGLRSRTESISSEEEEDWPTSPIIPIFEQC
Question: How did the binding [5] turn out when B3 was run?
Answer: binds

Reference: publication PMC4537266
